{"source": "paper PMC4548268", "about": "(Neuron, 2015)", "molecular_target": "calmodulin (with Ca^2+) (UniProt P0DP23)", "assay": "co-sedimentation"}
{"binder": "CaMKIIβ K43R, kinase-null mutant, purified (enzyme) not shown", "values": [{"measurement": "binding result", "value": "binds"}]}
